One test has as its system RS4;11 cells. Briefly: cells. The note with it: Homo sapiens.
Another test concerns Molt-4 cells. Briefly: cells. Conditions: Homo sapiens.
The mark [1] stands for this setting: RS4-11, 48 h, read-out: Cellular activity (IC50, nM) RS4, 11.
[2] abbreviates: MOLT-4, read-out: Cellular activity (IC50, nM) Molt-4.
Where [3] appears, read: RS4-11, 48 h, read-out: Cellular activity (IC50, nM) RS4;11.

Where two headings read alike, the source gives them in different places.

The record followed here is patent publication US11420968B2 (priority 2018, dated 2022).

What is called IC50 is the midpoint of a concentration-inhibition curve.

For the molecule `O=C(NS(=O)(=O)c1ccc(NCC2CCOCC2)c([N+](=O)[O-])c1)c1ccc(-c2ccc(N3CC(Cl)CC3c3ccccc3C3CC3)cc2)cc1Oc1cnc2[nH]ccc2c1` (stereo not shown) [Example A74, 3-((1H-pyrrolo[2,3-b]pyridin-5-yl)oxy)-4′-(4-chloro-2-(2-cyclopropylphenyl)pyrrolidin-1-yl)-N-((3-nitro-4-(((tetrahydro-2H-pyran-4-yl)methyl)amino)phenyl)sulfonyl)-[1,1′-biphenyl]-4-carboxamide], the IC50 with RS4;11 cells (setting [1]) came to 8.6 nM; in the test with Molt-4 cells (setting [2]), 1850 nM.
For the molecule `O=C(NS(=O)(=O)c1ccc(NCC2CCOCC2)c([N+](=O)[O-])c1)c1ccc(N2CCC3(CC2)CC(N2CC4(CC4)CC2c2ccccc2C2CC2)C3)cc1Oc1cnc2[nH]ccc2c1` (stereo not shown) [Example F81, 2-((1H-pyrrolo[2,3-b]pyridin-5-yl)oxy)-4-(2-(6-(2-cyclopropylphenyl)-5-azaspiro[2.4]heptan-5-yl)-7-azaspiro[3.5]nonan-7-yl)-N-((3-nitro-4-(((tetrahydro-2H-pyran-4-yl)methyl)amino)phenyl)sulfonyl)benzamide], the values for the IC50 in the test on RS4;11 cells (setting [3]) and in the test on Molt-4 cells (setting [2]) were 11 nM and 1700 nM, respectively.
`O=C(NS(=O)(=O)c1ccc(NCC2CCOCC2)c([N+](=O)[O-])c1)c1ccc(N2CC3(CCC(N4CCC[C@H]4c4ccccc4C4CC4)CC3)C2)cc1Oc1cnc2[nH]ccc2c1` [Example F30, (S)-2-((1H-pyrrolo[2,3-b]pyridin-5-yl)oxy)-4-(7-(2-(2-cyclopropylphenyl)pyrrolidin-1-yl)-2-azaspiro[3.5]nonan-2-yl)-N-((3-nitro-4-(((tetrahydro-2H-pyran-4-yl)methyl)amino)phenyl)sulfonyl)benzamide]: the IC50 in the test on RS4;11 cells (setting [1]) is 290 nM; with Molt-4 cells (setting [2]) it was more than 10000 nM.
Take `O=C(NS(=O)(=O)c1ccc(NCC2(F)CCOCC2)c([N+](=O)[O-])c1)c1ccc(N2CCC3(CC2)CC(N2CCC[C@@H]2c2ccccc2C2CC2)C3)cc1Oc1cnc2[nH]ccc2c1` [Example F28, (R)-2-((1H-pyrrolo[2,3-b]pyridin-5-yl)oxy)-4-(2-(2-(2-cyclopropylphenyl)pyrrolidin-1-yl)-7-azaspiro[3.5]nonan-7-yl)-N-((4-(((4-fluorotetrahydro-2H-pyran-4-yl)methyl)amino)-3-nitrophenyl)sulfonyl)benzamide]: the IC50 in the test with RS4;11 cells (setting [3]) is 83 nM; in the test on Molt-4 cells (setting [2]), more than 10000 nM.
For `CC(=O)N1CCC(c2ccccc2[C@H]2CCCN2c2ccc(-c3ccc(C(=O)NS(=O)(=O)c4ccc(NCC5CCOCC5)c([N+](=O)[O-])c4)c(Oc4cnc5[nH]ccc5c4)c3)cc2)CC1` [Example A110, (R)-3-((1H-pyrrolo[2,3-b]pyridin-5-yl)oxy)-4′-(2-(2-(1-acetylpiperidin-4-yl)phenyl)pyrrolidin-1-yl)-N-((3-nitro-4-(((tetrahydro-2H-pyran-4-yl)methyl)amino)phenyl)sulfonyl)-[1,1′-biphenyl]-4-carboxamide], in that order: 15 nM and 1260 nM.
Turning to `CCc1ccccc1[C@@H]1CCCN1C1CC2(C1)CN(c1ccc(C(=O)NS(=O)(=O)c3ccc(NC[C@H]4CC[C@](C)(O)CC4)c([N+](=O)[O-])c3)c(Oc3cnc4[nH]ccc4c3)c1)C2` [Example F111, 2-((1H-pyrrolo[2,3-b]pyridin-5-yl)oxy)-4-(6-((S)-2-(2-ethylphenyl)pyrrolidin-1-yl)-2-azaspiro[3.3]heptan-2-yl)-N-((4-((((1r,4r)-4-hydroxy-4-methylcyclohexyl)methyl)amino)-3-nitrophenyl)sulfonyl)benzamide], the IC50 with RS4;11 cells (setting [3]) was found to be 0.4 nM; in the test with RS4;11 cells (RS4-11, read-out: Celluclar activity (IC50, nM) RS 4, 11), 0.4 nM; in the test with Molt-4 cells (MOLT-4, read-out: Celluclar activity (IC50, nM) Molt-4), 1660 nM; in the test on Molt-4 cells (setting [2]), 1660 nM.
For `CN1CC=C(c2ccccc2C2CCCN2c2ccc(-c3ccc(C(=O)NS(=O)(=O)c4ccc(NCC5CCOCC5)c([N+](=O)[O-])c4)c(Oc4cnc5[nH]ccc5c4)c3)cc2)CC1` (stereo not shown) [Example A68, 3-((1H-pyrrolo[2,3-b]pyridin-5-yl)oxy)-4′-(2-(2-(1-methyl-1,2,3,6-tetrahydropyridin-4-yl)phenyl)pyrrolidin-1-yl)-N-((3-nitro-4-(((tetrahydro-2H-pyran-4-yl)methyl)amino)phenyl)sulfonyl)-[1,1′-biphenyl]-4-carboxamide], the IC50 in the test with RS4;11 cells (setting [1]) was 20 nM; in the test with Molt-4 cells (setting [2]), more than 10000 nM.
With `O=C(NS(=O)(=O)c1ccc(NCC2CCOCC2)c([N+](=O)[O-])c1)c1ccc(-c2ccc(N3CCC[C@@H]3c3ccccc3-c3ccncc3)cc2)cc1Oc1cnc2[nH]ccc2c1` (stereo in doubt) [Example A116, 3-((1H-pyrrolo[2,3-b]pyridin-5-yl)oxy)-N-((3-nitro-4-(((tetrahydro-2H-pyran-4-yl)methyl)amino)phenyl)sulfonyl)-4′-(2-(2-(pyridin-4-yl)phenyl)pyrrolidin-1-yl)-[1,1′-biphenyl]-4-carboxamide], the IC50 in the test on RS4;11 cells (setting [3]) turned out to be 65 nM; with Molt-4 cells (setting [2]), 7040 nM.
With `O=C(NS(=O)(=O)c1ccc(NCC2CCOCC2)c([N+](=O)[O-])c1)c1ccc(N2CCC(N3CCCC3c3cccc(Cl)c3)CC2)cc1Oc1cnc2[nH]ccc2c1` (stereo not shown) [Example E4, 2-((1H-pyrrolo[2,3-b]pyridin-5-yl)oxy)-4-(4-(2-(3-chlorophenyl)pyrrolidin-1-yl)piperidin-1-yl)-N-((3-nitro-4-(((tetrahydro-2H-pyran-4-yl)methyl)amino)phenyl)sulfonyl)benzamide], the IC50 in the test on RS4;11 cells (setting [1]) was 798 nM; in the test on Molt-4 cells (setting [2]), more than 10000 nM.
For `O=C(NS(=O)(=O)c1ccc(OCC2(F)CCN(C3COC3)CC2)c([N+](=O)[O-])c1)c1ccc(C2=CCC(N3CCC[C@H]3c3ccccc3C3CC3)CC2)cc1Oc1cnc2[nH]ccc2c1` (stereo partly drawn) [Example G35-S, 3-((1H-pyrrolo[2,3-b]pyridin-5-yl)oxy)-4′-((S)-2-(2-cyclopropylphenyl)pyrrolidin-1-yl)-N-((4-((4-fluoro-1 (oxetan-3-yl)piperidin-4-yl)methoxy)-3-nitrophenyl)sulfonyl)-2′,3′,4′,5′-tetrahydro-[1,1′-biphenyl]-4-carboxamide], in that order: 14 nM and 5190 nM.
On the same counts, the results for `CC1(C)CC(c2ccccc2)N(c2ccc(-c3ccc(C(=O)NS(=O)(=O)c4ccc(NCC5CCOCC5)c([N+](=O)[O-])c4)c(Oc4cnc5[nH]ccc5c4)c3)cc2)C1=O` (stereo not shown) [Example A20, 3-((1H-pyrrolo[2,3-b]pyridin-5-yl)oxy)-4′-(3,3-dimethyl-2-oxo-5-phenylpyrrolidin-1-yl)-N-((3-nitro-4-(((tetrahydro-2H-pyran-4-yl)methyl)amino)phenyl)sulfonyl)-[1,1′-biphenyl]-4-carboxamide] are 1500 nM and more than 10000 nM.
Take `CN1CC=C(c2ccccc2[C@H]2CCCN2c2ccc(-c3ccc(C(=O)NS(=O)(=O)c4ccc(NCC5(F)CCN(C6COC6)CC5)c([N+](=O)[O-])c4)c(Oc4cnc5[nH]ccc5c4)c3)cc2)CC1` [Example G121, (R)-3-((1H-pyrrolo[2,3-b]pyridin-5-yl)oxy)-N-((4-(((4-fluoro-1-(oxetan-3-yl)piperidin-4-yl)methyl)amino)-3-nitrophenyl)sulfonyl)-4′-(2-(2-(1-methyl-1,2,3,6-tetrahydropyridin-4-yl)phenyl)pyrrolidin-1-yl)-[1,1′-biphenyl]-4-carboxamide]: the IC50 is 1.6 nM with RS4;11 cells (setting [3]) and more than 10000 nM in the test on Molt-4 cells (setting [2]).
For `Cc1ccccc1C1CCCCCN1C1CC2(CCN(c3ccc(C(=O)NS(=O)(=O)c4ccc(NCC5CCOCC5)c([N+](=O)[O-])c4)c(Oc4cnc5[nH]ccc5c4)c3)CC2)C1` (stereo not shown) [Example F94, 2-((1H-pyrrolo[2,3-b]pyridin-5-yl)oxy)-N-((3-nitro-4-(((tetrahydro-2H-pyran-4-yl)methyl)amino)phenyl)sulfonyl)-4-(2-(2-(o-tolyl)azepan-1-yl)-7-azaspiro[3.5]nonan-7-yl)benzamide], in that order: 32 nM and more than 10000 nM.
Take `O=C(NS(=O)(=O)c1ccc(NCC2CCOCC2)c([N+](=O)[O-])c1)c1ccc(C2=CCC(N3CCCC3C3CCCC3)CC2)cc1Oc1cnc2[nH]ccc2c1` (stereo not shown) [Example C131, 3-((1H-pyrrolo[2,3-b]pyridin-5-yl)oxy)-4′-(2-cyclopentylpyrrolidin-1-yl)-N-((3-nitro-4-(((tetrahydro-2H-pyran-4-yl)methyl)amino)phenyl)sulfonyl)-2′,3′,4′,5′-tetrahydro-[1,1′-biphenyl]-4-carboxamide]: the IC50 in the test on RS4;11 cells (setting [1]) is 621 nM; in the test with Molt-4 cells (setting [2]), more than 10000 nM.
For `O=C(NS(=O)(=O)c1ccc(NC2CN(C3CCOCC3)C2)c([N+](=O)[O-])c1)c1ccc(-c2ccc(N3CCCC3c3ccccc3Cl)cc2)cc1Oc1cnc2[nH]ccc2c1` (stereo not shown) [Example G3, 3-((1H-pyrrolo[2,3-b]pyridin-5-yl)oxy)-4′-(2-(2-chlorophenyl)pyrrolidin-1-yl)-N-((3-nitro-4-((1-(tetrahydro-2H-pyran-4-yl)azetidin-3-yl)amino)phenyl)sulfonyl)-[1,1′-biphenyl]-4-carboxamide], in that order: 455 nM and more than 10000 nM.
On to `O=C(NS(=O)(=O)c1ccc(NCC2CCOCC2)c([N+](=O)[O-])c1)c1ccc(-c2ccc(N3CCCC3c3ccc(C4CC4)cc3)cc2)cc1Oc1cnc2[nH]ccc2c1` (stereo not shown) [Example A14, 3-((1H-pyrrolo[2,3-b]pyridin-5-yl)oxy)-4′-(2-(4-cyclopropylphenyl)pyrrolidin-1-yl)-N-((3-nitro-4-(((tetrahydro-2H-pyran-4-yl)methyl)amino)phenyl)sulfonyl)-[1,1′-biphenyl]-4-carboxamide], for which the IC50 is 1570 nM in the test with RS4;11 cells (setting [1]); 1570 nM in the test with RS4;11 cells (RS4-11, read-out: Cellular activity (IC50, nM) RS4, 11); more than 10000 nM in the test with Molt-4 cells (setting [2]).
On to `O=C(NS(=O)(=O)c1ccc(NCC2CCOCC2)c([N+](=O)[O-])c1)c1ccc(N2CCC3(CC2)CC(N2CCCC2c2ccc(C4CC4)cc2C2CC2)C3)cc1Oc1cnc2[nH]ccc2c1` (stereo not shown) [Example F75, 2-((1H-pyrrolo[2,3-b]pyridin-5-yl)oxy)-4-(2-(2-(2,4-dicyclopropylphenyl)pyrrolidin-1-yl)-7-azaspiro[3.5]nonan-7-yl)-N-((3-nitro-4-(((tetrahydro-2H-pyran-4-yl)methyl)amino)phenyl)sulfonyl)benzamide], for which the figures for the IC50 in the test on RS4;11 cells (setting [3]) and in the test on Molt-4 cells (setting [2]) were 36 nM and 2040 nM, respectively.
